Variants at the floor of the assay are shown more often than the library holds them.
B1: TPR 5TU (parent)
chain: GGAUCUUCUCGAUCUAACAAAAAAGACAAAUCUGCCACAAAGCUUGAGAGCAUCUUCGGAUGCAGAGGCGGCAGCCUUCGGUGGCGCGAUAGCGCCAACGUUCUCAACUAUGACACGCAAAACGCGUGCUCCGUUGAAUGGAGUUUAUCAUG

Variants of: B1
Assay: polymerase ribozyme fitness, log enrichment relative to wild type (log ratio); higher = more active; in vitro selection for triplet polymerase activity
Outline: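 Mutant libraries of both subunits of a heterodimeric triplet polymerase ribozyme were PCR-built, transcribed, and selected once in triplicate, with frozen incubation at −7 °C and capture of gel-excised extended constructs on streptavidin beads before RT-PCR. Illumina sequencing of input and output libraries was filtered to genotypes with ≥10 input reads and ≥1 read per output. Fitness is the logarithm of genotype enrichment over wild-type enrichment, using inverse-variance-weighted replicate averages. The logarithm is base 2.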

Variant	polymerase ribozyme fitness (log ratio)
G86C C131G	≤ -4.2
G86C G117A	-1.84
G86C U111G C116G	≤ -4.2
G86U A106C	-1.79
G86U A107U G141U	≤ -4.2
G86U A115G	-2.39
G86U A119G A150C	≤ -4.2
G86U A138U	≤ -4.2
G86U A147G	-3.45
G86U C87A U130G	≤ -4.2
G86U C87U U139C A142G	≤ -4.2
G86U C93U	-2.59
G86U C93U A120C U127A	≤ -4.2
G86U C95A C96U A113U U148G C149G	≤ -4.2
G86U C96A A98G	≤ -4.2
G86U C96A U135C	≤ -4.2
G86U C96G U102G A138U U139C	≤ -4.2
G86U C96U C125U A142C	≤ -4.2
G86U C99G	-3.67
G86U C103A A121G	-2.73
G86U C114U G124C	≤ -4.2

Variant	polymerase ribozyme fitness (log ratio)
G86U C123A	-1.99
G86U G88A	≤ -4.2
G86U G88A A107C C123A A138U	≤ -4.2
G86U G92C A98G A150U	-2.26
G86U G92U C114A	≤ -4.2
G86U G100A C131U	≤ -4.2
G86U U102C A110U U111G G126A A142G A147G	≤ -4.2
G86U U135A A142U	≤ -4.2
G86U U139A	≤ -4.2
C87A A89C G126C U144G U146C A150C	≤ -4.2
C87A A89U	≤ -4.2
C87A A91U C95U G100A C125U U146G	≤ -4.2
C87A A106U C129G G136A	≤ -4.2
C87A A113U	≤ -4.2
C87A A113U A119G	≤ -4.2
C87A A115G	≤ -4.2
C87A A119G	≤ -4.2
C87A A142U	≤ -4.2
C87A C93G C96U A107U A137G	≤ -4.2
C87A C93G C108G	≤ -4.2
C87A C93G C132A C149G	≤ -4.2

Variant	polymerase ribozyme fitness (log ratio)
C87A C93G G143C U146G	≤ -4.2
C87A C93U A106C A113U U151A	≤ -4.2
C87A C96A	≤ -4.2
C87A C99G U104G U135G	≤ -4.2
C87A C99U G136C G141A U146G	≤ -4.2
C87A C103A C114U	≤ -4.2
C87A C103U A138C	≤ -4.2
C87A C103U C108A A110C C132A	≤ -4.2
C87A C114G	≤ -4.2
C87A C114U	≤ -4.2
C87A C125A U148G	≤ -4.2
C87A C131A	≤ -4.2
C87A G94U C118U A138G	≤ -4.2
C87A G112U	≤ -4.2
C87A G117C G136U G141U	≤ -4.2
C87A G117C U134G	≤ -4.2
C87A G117C U146C	≤ -4.2
C87A G126A	-4.04
C87A G140A	≤ -4.2
C87A G143U	≤ -4.2
C87A G152U	≤ -4.2

Variant	polymerase ribozyme fitness (log ratio)
C87A U101C A142C	≤ -4.2
C87A U102G	≤ -4.2
C87A U135A	≤ -4.2
C87A U139C	≤ -4.2
C87A U139G	≤ -4.2
C87A U145G	≤ -4.2
C87A U146G	≤ -4.2
C87A U151A	≤ -4.2
C87G A89C U102A C105G	≤ -4.2
C87G A89U C96U	≤ -4.2
C87G A91C U127G A142U	≤ -4.2
C87G A97G	≤ -4.2
C87G A97U G117C	≤ -4.2
C87G A97U G124A	≤ -4.2
C87G A107G	≤ -4.2
C87G A138G	≤ -4.2
C87G A138U	≤ -4.2
C87G A142U	≤ -4.2
C87G C93U C99A U134G G141U	≤ -4.2
C87G C99A A137C	≤ -4.2

Source: the RNAGym collection of RNA variant scans (doi:10.1073/pnas.2313332121)
